# From PubChem BioAssay AID624417 (National Center for Advancing Translational Sciences (NCATS), 2012)
# The whole screen tested about 410,000 compounds, of which about 6,400 (1.6%) were called active. Inconclusive means that the source gave no clear call. Such entries were picked first, then a sample of the others. The call rests on the fitted dose curve; in most records, active means well fitted inhibition curve with a large enough effect; inconclusive means small, poorly fitted or top-dose-only effect; inactive means no such curve, though single readings can be large or run the other way. No potency is given beside an inconclusive call; the fits are too rough.
# Target: Glucagon-like peptide 1 receptor (Homo sapiens) (UniProt P43220)
# UniProt P43220, sequence (P43220 whole entry, looked up): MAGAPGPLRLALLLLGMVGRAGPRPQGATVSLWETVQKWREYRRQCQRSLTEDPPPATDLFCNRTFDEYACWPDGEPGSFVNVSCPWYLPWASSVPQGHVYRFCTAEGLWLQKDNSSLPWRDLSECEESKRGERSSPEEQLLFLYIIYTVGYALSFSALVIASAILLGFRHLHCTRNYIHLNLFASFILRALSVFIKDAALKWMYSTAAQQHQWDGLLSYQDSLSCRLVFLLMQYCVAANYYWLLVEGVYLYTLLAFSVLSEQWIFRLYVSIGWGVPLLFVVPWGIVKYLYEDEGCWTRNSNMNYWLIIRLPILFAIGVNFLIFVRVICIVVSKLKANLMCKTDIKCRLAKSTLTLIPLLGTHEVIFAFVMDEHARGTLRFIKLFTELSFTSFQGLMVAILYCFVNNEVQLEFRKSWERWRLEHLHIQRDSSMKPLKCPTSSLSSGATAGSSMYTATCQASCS
# Experiment: qHTS of GLP-1 Receptor Inverse Agonists (Inhibition Mode); further: nearly all actives have a fitted effect of over 55% in size
# Conditions: HEK293 GLP-1R CRE-luciferase, luminescence, 24 h, GLP-1R form is constitutively active; activity change, negative = inhibition: at 38.3 µM (top of the series) unless noted
# Method in brief: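 Using stably transfected HEK293 (constitutively active GLP-1R, cAMP-luciferase reporter), compounds were incubated 24 hr and luciferase measured by luminescence.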
# On the % scale 0 is the no-effect control and ±100 the full control effect; potency means the concentration at half of the fitted maximal effect; tags describe the fitted curve by direction and shape.
Structure (SMILES),"activity change, negative = inhibition",Potency
O=C(NC(=O)N1CCCc2ccccc21)c1ccccc1,inactive: 6.91%,
COc1ccc(COC(=O)c2c(C)nn(-c3ccccc3)c2Cl)cc1,,"inconclusive [inhibitor, single point]"
O=C(O)CCc1ccc(S(=O)(=O)Nc2ccccc2C(=O)NCCc2ccccc2)cc1,inactive: 0%,
O=C(CSc1nnc(Cc2ccsc2)o1)c1ccccc1,,"inconclusive [inhibitor, single point]"
Cc1nn(-c2ccc(N3CCCCC3)nn2)c(C)c1CCC(=O)NCc1ccc(Cl)cc1,inactive: 9.61%,
Clc1ccc(-c2csc(N/N=C\c3cccnc3)n2)cc1,inactive: -27.8%,
O=C(CNC(=O)N1CC(=O)Nc2ccccc21)Nc1ccc(Br)cc1F,inactive: -10.9%,
Cc1cccc2c1-c1sc(C(=O)N3CCc4ccccc4C3)cc1CO2,,"inconclusive [inhibitor, partial curve, poor fit]"
Cc1ccc(CCNC(=O)C2CC(c3ccccc3C(F)(F)F)=NO2)cc1 (stereo not given),,"inconclusive [inhibitor, single point]"
CCc1nc2c(OCc3ccc(Cl)cc3Cl)cccn2c1N(C)C(=O)c1ccccc1F,,"inconclusive [inhibitor, partial curve, poor fit]"
COc1ccc(NC(=O)N2CCCC(c3nc(-c4ccc(C(C)C)cc4)no3)C2)cc1 (stereo not given),,"inconclusive [inhibitor, full curve, poor fit]"
CN1CCN(c2ccc(S(=O)(=O)N3CCCCC3)cc2NC(=O)CSCc2ccccc2)CC1,,"inconclusive [inhibitor, single point]"
FC(F)(F)Oc1ccccc1C(c1nnnn1-c1ccc2c(c1)OCCO2)N1CCN(C/C=C/c2ccccc2)CC1 (stereo not given),,"inconclusive [inhibitor, partial curve, poor fit]"
CC(C)(C)NC(=O)c1ccc2c(c1)C1C3CCC(C3)C1C(c1ccccc1)N2 (stereo not given),,active: 2.82 µM
N#Cc1ccc(OCCN2CCc3ccccc3C2)cc1,,"inconclusive [inhibitor, partial curve, poor fit]"
COc1ccc(-c2csc(NC(=O)c3c(C)noc3C)n2)cc1,,"inconclusive [inhibitor, single point]"
C/C=C/c1ccc(O)c(OC)c1,inactive: 11.6%,
O=C(c1ccccc1)N1N=C(C(F)(F)F)CC1(O)c1ccccc1 (stereo not given),,"inconclusive [inhibitor, partial curve, poor fit]"
Fc1ccccc1CSc1ncnc2c1ncn2C1CCCCO1 (stereo not given),,"inconclusive [inhibitor, single point]"
COc1ccccc1-c1coc2cc(OC(=O)N3CCOCC3)ccc2c1=O,,"inconclusive [inhibitor, single point]"
CCCc1cc(C(=O)NC2CCCN(Cc3ccccc3F)C2)no1 (stereo not given),,"inconclusive [inhibitor, partial curve, poor fit]"
O=S(=O)(Nc1nc2ccccc2nc1N1CCN(c2ccccn2)CC1)c1ccc(Cl)cc1,,"inconclusive [inhibitor, partial curve, poor fit]"

Structure (SMILES),"activity change, negative = inhibition",Potency
COCCN(C(=O)c1ccccc1F)c1nc(-c2ccc(OC)cc2)cs1,,active: 10 µM
CCc1ccc(-c2nc(CN3CCC(C(=O)NCc4ccccc4OC)CC3)c(C)o2)cc1,,"inconclusive [inhibitor, partial curve, poor fit]"
Cc1ccccc1CNC(=O)Nc1ccc2c(c1)N(C)C(=O)c1ccccc1S2,,"inconclusive [inhibitor, single point]"
C[C@H](c1ccccc1)N1C[C@H](COCc2ccccc2)Oc2cc(N3CCC[C@@H]3CO)ccc2S1(=O)=O,,"inconclusive [inhibitor, single point]"
C/C(CC(=O)Nc1ccc(C)c(Cl)c1)=N\NC(=O)Cc1ccccc1,,"inconclusive [inhibitor, partial curve, poor fit]"
CCOc1ccc(N(C)S(=O)(=O)c2c[nH]c(C(=O)OC)c2)cc1,,"inconclusive [inhibitor, single point]"
CC(C)(C)C1CCc2c(C(=O)NNC(=O)/C=C/C(=O)O)csc2C1 (stereo not given),inactive: -15.4%,
COc1ccc(C2CC(=O)N(Cc3ccccc3)c3c2c(C)nn3-c2nc(C)cc(C)n2)c(OC)c1 (stereo not given),inactive: 10.5%,
O=C(OCCCOC(=O)c1ccc(O)cc1)c1ccc(O)cc1,,"inconclusive [inhibitor, full curve, poor fit]"
Cc1cccc(NS(=O)(=O)c2ccc(NC(=O)N3CCCC3)cc2)c1,inactive: -4.35%,
O=C(Nc1cccc(C(F)(F)F)c1)C12CC3CC(CC(C3)C1)C2,,"inconclusive [inhibitor, partial curve, poor fit]"
O=[N+]([O-])c1ccc(/C=N/NS(=O)(=O)c2ccc(Cl)cc2)o1,inactive: -10.8%,
CCn1c(O)c(C=Nc2ccccc2)sc1=S,,"inconclusive [inhibitor, single point]"
CCOC(=O)c1cc(C)n(CC2CCC(C(=O)Nc3ccc(C(=O)OC)cc3)CC2)c1C (stereo not given),,"inconclusive [inhibitor, partial curve, poor fit]"
Cc1ccc(NCc2nnc(SCC(=O)c3ccccc3)o2)c(C)c1,,"inconclusive [inhibitor, single point]"
Fc1ccccc1NC(=S)NCCc1ccccc1,,"inconclusive [inhibitor, partial curve, poor fit]"
CCN(CC)c1cc(C)c2cc(NC(=O)c3ccc(F)cc3Cl)ccc2n1,,"inconclusive [inhibitor, single point]"
O=C(Nc1ccc2ccccc2c1)c1ccc(Br)o1,,"inconclusive [inhibitor, partial curve, poor fit]"
Cc1ccc2nc(SCC(=O)NCc3ccco3)c(C)cc2c1,inactive: -24.9%,
CC1(c2ccccc2)CC(C)(C)N2C(=O)C(=O)c3cccc1c32 (stereo not given),,"inconclusive [inhibitor, single point]"
CCOc1ccccc1NC(c1nnc(-c2ccccc2)o1)c1ccc(F)cc1Cl (stereo not given),,"inconclusive [inhibitor, partial curve, poor fit]"
O=C(NCCc1ccccc1)c1ccc(Cl)c(S(=O)(=O)N2CCCC2)c1,,"inconclusive [inhibitor, partial curve, poor fit]"

Structure (SMILES),"activity change, negative = inhibition",Potency
O=C(Nc1ccc(F)cc1)N1CCN(C/C=C/c2ccccc2)CC1,,"inconclusive [inhibitor, partial curve, poor fit]"
Cn1c(=O)oc2cc(S(=O)(=O)N3CCC(C(=O)N4CCN(c5ccc(Cl)cc5)CC4)CC3)ccc21,inactive: 13.6%,
Oc1cccc(Nc2nc(N3CCOCC3)nc(N3CCOCC3)n2)c1,,"inconclusive [inhibitor, single point]"
Cc1cc(C)c2sc(NC(=O)c3ccc([N+](=O)[O-])o3)nc2c1,inactive: 10.7%,
CC1CC(C)CN(CCCNC(=O)c2cc3c(s2)-c2ccccc2OC3)C1 (stereo not given),,"inconclusive [inhibitor, partial curve, poor fit]"
Cc1ccc2nc(-c3ccc(NC(=O)CN4CCN(C(=O)c5ccco5)CC4)cc3)sc2c1,,"inconclusive [inhibitor, single point]"
CCOC(=O)COc1c(C(=O)OC)sc2ncccc12,inactive: 1.64%,
CCOc1ccc(C2C=C(c3ccc(C)cc3)Nc3nnnn32)cc1 (stereo not given),,"inconclusive [inhibitor, partial curve, poor fit]"
Cn1nc(-c2ccccc2)c(CN2CCN(c3ncccn3)CC2)c1Cl,,"inconclusive [inhibitor, partial curve, poor fit]"
O=C(CCOc1ccccc1)N(Cc1cccnc1)c1nc2ccc(F)cc2s1,inactive: -10.9%,
COc1ccc(-c2n[nH]c(C)c2-c2ccc(Cl)cc2)c(O)c1,,"inconclusive [inhibitor, partial curve, poor fit]"
CCN(CC)CCCNC(=O)c1cc(Nc2ccc(OC)cc2)nc2ccccc12,,"inconclusive [inhibitor, partial curve, poor fit]"
O=C(CC(=O)Nc1ccccc1[N+](=O)[O-])Nc1ccccc1[N+](=O)[O-],,"inconclusive [inhibitor, single point]"
COc1ccc(C(=O)Nc2ccccc2N2CCN(C(=O)c3ccccc3)CC2)cc1Br,,"inconclusive [inhibitor, single point]"
CCOc1ccccc1C(=O)N1c2ccccc2Sc2ccccc21,,"inconclusive [inhibitor, partial curve, poor fit]"
CCOC(=O)COc1ccc(C)cc1C(=O)c1ccn2nc(-c3ccc(F)cc3)cc2n1,inactive: 1.28%,
CC(C)N(Cc1ccccc1)C(=O)/C=C/c1ccccc1[N+](=O)[O-],,"inconclusive [inhibitor, full curve]"
CC1CCN(C(=O)c2cccc(NC(=O)c3nsc4ccccc34)c2)CC1,,"inconclusive [inhibitor, single point]"
O=C(NCc1cccc(C(F)(F)F)c1)C1CC(c2cccc(F)c2)=NO1 (stereo not given),,"inconclusive [inhibitor, single point]"
Cc1cccc(C(=O)OCC(=O)c2c(N)n(CC(C)C)c(=O)n(C)c2=O)c1[N+](=O)[O-],,"inconclusive [inhibitor, partial curve, poor fit]"
COCCNC(=O)c1ccc2c(c1)N=C(C)c1cc(C)ccc1S2,,"inconclusive [inhibitor, full curve, poor fit]"
